Results on 87 compounds are retold here after paper PMC4336329 (PLoS ONE, 2015).

Screen size: about 310,000 compounds; about 2,200 (0.71%) showed an effect of 50% or more. The effect is printed as a negative number. Some of the results follow.

The target of this experiment is human ether-à-go-go-related gene (hERG) potassium channel (human, UniProt Q12809). As to the kind of experiment: primary screen, population patch clamp on CHO cells stably expressing hERG.
Sequence of human ether-à-go-go-related gene (hERG) potassium channel (Q12809 whole entry, looked up): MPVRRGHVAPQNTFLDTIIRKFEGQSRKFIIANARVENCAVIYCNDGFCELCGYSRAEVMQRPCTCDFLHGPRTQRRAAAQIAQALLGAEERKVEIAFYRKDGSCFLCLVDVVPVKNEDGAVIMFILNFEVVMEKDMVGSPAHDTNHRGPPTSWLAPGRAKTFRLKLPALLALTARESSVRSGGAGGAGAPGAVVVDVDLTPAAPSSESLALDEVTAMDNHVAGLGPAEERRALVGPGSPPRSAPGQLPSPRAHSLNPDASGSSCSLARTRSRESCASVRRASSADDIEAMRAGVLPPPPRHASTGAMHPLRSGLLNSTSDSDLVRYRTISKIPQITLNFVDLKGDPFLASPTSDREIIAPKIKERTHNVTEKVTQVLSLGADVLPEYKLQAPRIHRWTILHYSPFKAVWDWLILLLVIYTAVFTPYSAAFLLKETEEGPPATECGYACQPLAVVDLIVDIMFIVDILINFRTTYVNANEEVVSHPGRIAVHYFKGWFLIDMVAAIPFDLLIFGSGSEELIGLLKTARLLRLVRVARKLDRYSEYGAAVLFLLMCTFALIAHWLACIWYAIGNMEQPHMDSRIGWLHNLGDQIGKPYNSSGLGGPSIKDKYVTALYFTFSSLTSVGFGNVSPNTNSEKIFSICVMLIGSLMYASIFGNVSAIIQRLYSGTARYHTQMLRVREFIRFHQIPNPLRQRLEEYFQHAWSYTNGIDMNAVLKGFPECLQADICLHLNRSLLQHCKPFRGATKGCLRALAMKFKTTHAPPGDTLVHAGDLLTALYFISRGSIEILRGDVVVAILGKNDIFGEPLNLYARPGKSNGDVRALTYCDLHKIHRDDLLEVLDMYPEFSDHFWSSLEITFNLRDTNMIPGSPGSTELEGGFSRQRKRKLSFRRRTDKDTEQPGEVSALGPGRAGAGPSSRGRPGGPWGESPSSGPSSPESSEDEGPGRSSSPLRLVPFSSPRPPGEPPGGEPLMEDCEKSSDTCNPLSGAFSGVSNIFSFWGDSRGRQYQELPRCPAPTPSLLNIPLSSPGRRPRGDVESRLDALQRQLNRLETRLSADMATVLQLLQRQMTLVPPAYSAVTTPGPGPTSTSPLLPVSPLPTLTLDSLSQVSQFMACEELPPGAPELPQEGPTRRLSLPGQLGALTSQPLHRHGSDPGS
On to `CCN(CC)CCC(C)OC(c1ccccc1)c1ccccc1.O=C(O)CC(O)(CC(=O)O)C(=O)O` (stereo not drawn), for which the “hERG current change (%, negative = inhibition) at 1uM” value is -3.33%. The same measure for `COCc1cc(C)nc2sc(C(=O)OC(C)C)c(N)c12`: -1.63%; for `CCCOc1ccc(-c2cc(C(=O)NCC3CCCO3)c3ccccc3n2)cc1` (stereo not drawn): 10.8%. The result for `CN(Cc1ccccc1)C(=O)Cn1c(=O)c2cccn2c2cccnc21` reads -1.36%. With `CC(C)(C)OC(=O)CNC(=O)c1[nH]cnc1C(=O)NC(c1ccccc1)c1ccccc1`, the “hERG current change (%, negative = inhibition) at 1uM” value was found to be 0.772%. Regarding `CS(=O)(=O)c1ccc(C(=O)NC(Cc2ccccc2)c2ccccc2)cc1` (stereo not drawn), the “hERG current change (%, negative = inhibition) at 1uM” value turned out to be 10.7%. On to `CCn1c(O)c(C=Nc2ccccc2)sc1=S`, for which the “hERG current change (%, negative = inhibition) at 1uM” value is reported as -1.59%.

`CN(Cc1ccccc1)C(=O)c1nc2ccccn2c1CNCCn1cccn1`: the “hERG current change (%, negative = inhibition) at 1uM” value is -5.72%. In the case of `CC1CN(C(=O)c2ccc(Oc3ccccc3)cc2)CC(C)O1` (stereo not drawn), the “hERG current change (%, negative = inhibition) at 1uM” value is listed as 4.57%. The same measure for `COc1ccccc1NC(=O)C(=O)NCc1ccncc1`: 4.41%; for `COc1ccc(C(=O)Nn2cnnc2)c(OC)c1`: 6.2%; for `COc1ccc(C2=C(C=C(C#N)C#N)C(c3ccccc3C)c3ccccc3O2)cc1OC` (stereo not drawn): 3.34%. The result for `O=C(N/C(=C/c1cccs1)C(=O)N1CCOCC1)c1ccccc1` reads 15.6%; that for `O=C(Nc1ccccc1C(=O)NCc1cccnc1)c1ccccc1F`, 20%; that for `NC12CN3CN(CN(C3)C1)C2.O=C(O)c1cccnc1`, 12.5%. The result for `COC(=O)[C@H](Cc1ccccc1)NC(=O)C1CCN(C(=O)[C@H](C)NS(=O)(=O)c2ccc(C)cc2)CC1` reads 3.05%; that for `COc1ccc(-c2cc(C(=O)Nc3ccc(OC)cc3OC)no2)cc1`, 13.5%; that for `CN(C)CCC(=O)C(Cc1ccccc1)c1ccccc1.Cl` (stereo not drawn), 13.9%. Consider `CC(=O)Cc1nnn(-c2cc(C)on2)n1`, for which the “hERG current change (%, negative = inhibition) at 1uM” value was determined as 19.5%.

Turning to `COc1cccc(NC(=O)CCC2CCN(C(=O)c3cncs3)CC2)c1`, the “hERG current change (%, negative = inhibition) at 1uM” value is on record as 6.21%. Turning to `Cn1c(O)c(C=NCCOc2ccc(Cl)cc2)c(=O)n(C)c1=O`, the “hERG current change (%, negative = inhibition) at 1uM” value turned out to be 1.91%. Consider `Cc1ccc(S(=O)(=O)Nc2ccc(NC(=O)CN3CCCCC3)cc2)cc1`, for which the “hERG current change (%, negative = inhibition) at 1uM” value came out at 7.4%. Take `CN(Cc1ccccc1)C(=O)COc1cc(=O)n(C)c2ccccc12`: the “hERG current change (%, negative = inhibition) at 1uM” value is 3.2%.

Consider `Cc1ccc[n+](CC(=O)Nc2cccc([N+](=O)[O-])c2)c1.[Cl-]`, for which the “hERG current change (%, negative = inhibition) at 1uM” value turned out to be 15.8%. In the case of `O=C(Cn1cnc([N+](=O)[O-])n1)N/N=C/c1ccc(O)cc1O`, the “hERG current change (%, negative = inhibition) at 1uM” value was 11.7%. `Cc1ccc(C)c(NC(=O)c2ccc[n+](Cc3ccc([N+](=O)[O-])cc3)c2)c1.[Br-]`: the “hERG current change (%, negative = inhibition) at 1uM” value came out at 7.31%. With `Cc1ccc(CNc2ccc3nnc(-c4ccccc4)n3n2)cc1`, the “hERG current change (%, negative = inhibition) at 1uM” value worked out at 9.06%. Consider `CCOc1ccccc1CN1CCN(Cc2ccc(C)o2)CC1CCO` (stereo not drawn), for which the “hERG current change (%, negative = inhibition) at 1uM” value is -9.63%.

As to `COc1ccc(-n2ccnc2CN2CCCC(CO)(Cc3cccc(OC)c3)C2)cc1` (stereo not drawn), the “hERG current change (%, negative = inhibition) at 1uM” value was determined as 0.509%.

Take `COC(=O)C1(C)CN(S(=O)(=O)c2ccc(C)cc2)c2cc(OC)ccc2C1=O` (stereo not drawn): the “hERG current change (%, negative = inhibition) at 1uM” value came out at 6.72%. The result for `Cc1n[nH]c(C)c1S(=O)(=O)N1CCN(c2ccccn2)CC1` reads 10.7%. As for `Cc1c(NC(=O)/C(=C/c2cccs2)NC(=O)c2ccccc2)c(=O)n(-c2ccccc2)n1C`, the “hERG current change (%, negative = inhibition) at 1uM” value is on record as 11%. The result for `CCC(C)c1cc(S(=O)(=O)N2CCOCC2)ccc1OC` (stereo not drawn) reads -1.67%; that for `COc1cc2[nH]c(=S)nc(NCCCOC(C)C)c2cc1OC`, 4.64%. On to `CSc1ccccc1NC(=O)Cn1nc([N+](=O)[O-])c(Cl)c1C`, for which the “hERG current change (%, negative = inhibition) at 1uM” value came out at 11.9%. The result for `CC(C)n1c(O)c(N=NC(=O)CNC(=O)CCc2ccccc2)c2ccccc21` reads -1.31%; that for `Cc1ccccc1-c1noc(-c2ccccc2F)n1`, -1.77%; that for `CCCc1nnc(NC(=O)c2cc3ccccc3o2)s1`, 20%. With `Cc1ccc(S(=O)(=O)CCN2CCN(c3ccccc3)CC2)cc1`, the “hERG current change (%, negative = inhibition) at 1uM” value was 5.58%. The result for `O=C(NCc1n[nH]c(=S)n1-c1ccccc1)c1ccc(S(=O)(=O)N2CCCCC2)cc1` reads 3.47%; that for `COc1ccc(/C=N/NC(=O)c2cccc(Br)c2)cc1CSc1ccccn1`, 5.78%; that for `COc1cc(C(=O)NCc2nnc(SCC(=O)N3CCC(C)CC3)o2)cc(OC)c1OC`, 9.62%. For `O=C(Nc1ccc2c(c1)OCO2)N1CCN(c2cccc(C(F)(F)F)c2)CC1`, the “hERG current change (%, negative = inhibition) at 1uM” value was determined as 7.41%. The result for `COC(=O)NNC(=O)Cc1cccc2ccccc12` reads 15.1%; that for `Cc1nc2ccccc2n1C(=O)c1cc(-c2ccc(Br)cc2)nc2ccccc12`, 20.2%; that for `COc1ccc(CN2CCC(N(CCc3ccccc3)Cc3ccccc3)CC2)c(OC)c1.O=C(O)C(=O)O`, -79.8%. On to `CCC(C)(C)c1ccc(OCCCC[n+]2cccc(C)c2C)c(C(C)(C)CC)c1.[Br-]`, for which the “hERG current change (%, negative = inhibition) at 1uM” value is on record as -52.7%. The same measure for `CCc1c(C)nc(N2CCN(c3ccc(Cl)cc3)CC2)[nH]c1=O`: 16.8%; for `COc1ccc(C(=O)NCc2cccc(Cl)c2)cc1S(=O)(=O)N1CCOCC1`: 7.38%; for `CCC(C)N(C(=O)COC(=O)C1CCN(S(=O)(=O)c2ccc(C)c(C)c2)CC1)C1CCS(=O)(=O)C1` (stereo not drawn): -10.6%.

Take `O=C(COC(=O)c1cccc(S(=O)(=O)N2CCOCC2)c1)Nc1ncc(Cl)cc1Cl`: the “hERG current change (%, negative = inhibition) at 1uM” value was determined as 5.26%. The same measure for `C/C(=N\OCC(=O)Nc1ccc(OC(F)(F)F)cc1)c1ccc2c(c1)OCCO2`: 6.61%. The result for `CCC(=O)N1CCc2cc(Br)cc(S(=O)(=O)CCC(=O)NCc3ccco3)c21` reads -3.2%. The result for `O=C(Nc1ccc(F)cc1F)NC1CC(=O)N(Cc2ccccc2)C1` (stereo not drawn) reads 11.7%; that for `CCC(CC)c1nnc(NC(=O)C2=NNC(=O)CC2)s1`, 3.23%; that for `Cc1ccccc1-c1nc(CN2CCC(C(=O)NCc3cccs3)CC2)c(C)o1`, -47.9%.

With `CCc1ccccc1NC(=O)c1ccc(S(=O)(=O)NCC2CCCO2)cc1` (stereo not drawn), the “hERG current change (%, negative = inhibition) at 1uM” value is reported as 14%. The result for `CC(=O)Nc1ccc(SC[C@H](C)CN2CC[C@H](O)CCC2=O)cc1` reads 12.6%. Regarding `Cc1ccc(-n2c(Cn3c(C)nc4ccccc43)n[nH]c2=S)cc1`, the “hERG current change (%, negative = inhibition) at 1uM” value amounted to 8.03%.

As to `Cc1ccc(S(=O)(=O)CNC(=S)c2ccc3ccccc3c2)cc1`, the “hERG current change (%, negative = inhibition) at 1uM” value was -10.8%. For `COc1cc(NC(=O)CN2c3ccccc3CC2C)cc(OC)c1OC` (stereo not drawn), the “hERG current change (%, negative = inhibition) at 1uM” value worked out at 11.2%.

In the case of `CC(=O)c1cccc(NC(=O)CCS(=O)(=O)c2cccc3nonc23)c1`, the “hERG current change (%, negative = inhibition) at 1uM” value is reported as -3.92%.

Regarding `Cc1[nH]c2ccccc2c1/C=N/NC(=O)c1cccs1`, the “hERG current change (%, negative = inhibition) at 1uM” value was 23.1%. Turning to `COc1ccc(-c2csc(NC(=O)CSc3n[nH]c(N)n3)n2)cc1`, the “hERG current change (%, negative = inhibition) at 1uM” value is listed as 6.22%. The result for `COc1ccc(O)c(C(=O)C2c3ccccc3C(=O)N2c2ccc(C)cc2)c1` (stereo not drawn) reads 15.4%; that for `Cc1ccc(/C=C/C(=O)Nc2sc3c(c2C#N)CCCC3)o1`, 4.19%; that for `Cc1noc(C)c1COC(=O)c1ccccc1NC(=O)Cc1ccccc1`, -2.78%. On to `CC(OC(=O)c1ccccc1O)C(=O)Nc1ccc(Cl)cn1` (stereo not drawn), for which the “hERG current change (%, negative = inhibition) at 1uM” value was 3.23%. For `COc1ccc(Cl)cc1NC(=O)CN(C)C(=O)c1cc(-c2cccs2)nn1-c1ccccc1`, the “hERG current change (%, negative = inhibition) at 1uM” value was -3.49%. Regarding `Cn1c2c(c3ccccc31)CC/C2=N\O`, the “hERG current change (%, negative = inhibition) at 1uM” value came out at 0.871%. The same measure for `O=S(=O)(/N=C(/Sc1ccccc1)c1ccccc1)c1ccccc1`: 13.1%; for `NC(=O)C1CCCN(S(=O)(=O)c2ccccc2)C1` (stereo not drawn): 15%; for `COc1cc2c(cc1OC)C(c1cc3cc(C)ccc3[nH]c1=O)N(C(=O)c1ccco1)CC2` (stereo not drawn): 9.04%. The same measure for `O=C(COC(=O)Cn1nnc2ccccc21)NC1CCCC1`: 7.12%.

Take `Cc1cccc(NC(=O)COc2ccc(Br)cc2)n1`: the “hERG current change (%, negative = inhibition) at 1uM” value was 10.5%. The same measure for `Cc1ccc(C)c(N2CCN(C(=O)c3ccc(CS(=O)Cc4cccc(Cl)c4)o3)CC2)c1` (stereo not drawn): 9.51%. Turning to `O=S(=O)(c1ccc(Cl)nc1)N1CCCc2ccccc21`, the “hERG current change (%, negative = inhibition) at 1uM” value is reported as 3.99%.

In the case of `COc1cc([N+](=O)[O-])ccc1NC(=O)NCc1ccco1`, the “hERG current change (%, negative = inhibition) at 1uM” value came to 12.2%. As to `CC(C)CCC(O)(CCC(C)C)C(=O)NN1CCCCC1`, the “hERG current change (%, negative = inhibition) at 1uM” value is 0.115%. As for `CCCCN1CNC(=S)N(Cc2ccccc2)C1`, the “hERG current change (%, negative = inhibition) at 1uM” value came out at 1.1%. The same measure for `CCN(CCCNC(=O)c1cn(CC)c2ccc(S(=O)(=O)N(C)C)cc2c1=O)c1cccc(C)c1`: 1.47%. On to `O=C(CSc1ccc2nnc(-c3ccccc3)n2n1)NCc1ccco1`, for which the “hERG current change (%, negative = inhibition) at 1uM” value is -65.8%. As to `CC(C)CC(NS(=O)(=O)c1ccc2c(c1)oc(=O)n2C)C(=O)NCc1cccnc1` (stereo not drawn), the “hERG current change (%, negative = inhibition) at 1uM” value is recorded as 11.9%. The same measure for `N#C/C(=C\c1ccccc1Cl)C(=O)NC(=O)Oc1ccccc1`: 20%; for `COc1cc(NC(=O)Nc2cccc(Cl)c2)c(C(=O)O)cc1OC`: 15.9%; for `COCCn1c(-c2cc(OC)c(OC)c(OC)c2)nc2oc3cc(OC)ccc3c(=O)c2c1=O`: 9.98%. The result for `COc1ccc(COC(=O)c2cc([N+](=O)[O-])ccc2N2CCOCC2)cc1F` reads -11.7%.
